Results published in the supplement of paper PMC7826260.
The other results are listed elsewhere or left out. Viral Rep nickase domains cut single-stranded DNA in vitro (1 h at 37 °C, 3 µM enzyme); the outer parts of the 90-letter strands are left off. Numbers give uncut DNA relative to the enzyme-free pool, as log2; strong cutting gives strongly negative numbers. There is no active / inactive call. Because reads are shares of a total, they shift together; where an enzyme cuts many sequences, the uncut ones exceed 0.

How the values were obtained:
Assay in all cases: uncleaved DNA left, log2 of reads against the no-enzyme library (log2 ratio); higher = less cleavage (more negative = more Rep cleavage of the k-mer); sequences stand for … in CTCGTCCG…ACCGGAGA
[1] = test system: T1, Rep nickase domain of Muscovy duck circovirus
T1 sequence (Rep 1-111, printed without the tag): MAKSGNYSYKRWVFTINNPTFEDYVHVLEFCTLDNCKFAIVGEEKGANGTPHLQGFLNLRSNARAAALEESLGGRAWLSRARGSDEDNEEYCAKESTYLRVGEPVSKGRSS
Experimental: (§1)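 A pool of 90-nt single-stranded DNAs with seven random bases just before the constant AC of the nick site (name = the seven bases) was cut by 3 µM recombinant His6-SUMO-tagged Rep nickase domain (300 nM DNA, 50 mM HEPES pH 8.0, 50 mM NaCl, 1 mM MnCl2, 1 h, 37 °C, three replicates). Uncut DNA was amplified and sequenced.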

[2] = test system: T2, Rep nickase domain of banana bunchy top virus
T2 sequence (Rep 1-94, printed without the tag): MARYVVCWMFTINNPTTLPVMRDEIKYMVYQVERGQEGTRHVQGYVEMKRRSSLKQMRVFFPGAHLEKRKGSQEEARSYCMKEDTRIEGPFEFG
Experimental: as §1

[3] = test system: T3, Rep nickase domain of cabbage leaf curl virus
T3 sequence (Rep 1-116, printed without the tag): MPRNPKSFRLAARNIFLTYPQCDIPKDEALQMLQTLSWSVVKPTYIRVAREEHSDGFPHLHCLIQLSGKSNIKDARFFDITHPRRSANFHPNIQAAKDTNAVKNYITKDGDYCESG
Experimental: as §1

[4] = test system: T4, Rep nickase domain of chickpea chlorotic dwarf virus
T4 sequence (Rep 1-124, printed without the tag): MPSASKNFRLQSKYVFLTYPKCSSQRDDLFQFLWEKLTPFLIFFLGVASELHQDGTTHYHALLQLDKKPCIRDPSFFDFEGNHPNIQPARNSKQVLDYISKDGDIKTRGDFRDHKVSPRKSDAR
Experimental: as §1

[5] = test system: T5, Rep nickase domain of faba bean necrotic yellows virus
T5 sequence (Rep 1-98, printed without the tag): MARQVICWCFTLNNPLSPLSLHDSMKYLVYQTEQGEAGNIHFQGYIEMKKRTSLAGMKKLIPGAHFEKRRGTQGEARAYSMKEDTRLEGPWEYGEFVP
Experimental: as §1

[6] = test system: T6, Rep nickase domain of maize striate mosaic virus
T6 sequence (Rep 1-117, printed without the tag): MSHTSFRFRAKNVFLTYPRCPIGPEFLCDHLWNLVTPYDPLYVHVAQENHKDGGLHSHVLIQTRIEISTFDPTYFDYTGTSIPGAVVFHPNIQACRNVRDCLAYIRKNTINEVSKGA
Experimental: as §1

[7] = test system: T7, Rep nickase domain of porcine circovirus 2
T7 sequence (Rep 2-116, printed without the tag): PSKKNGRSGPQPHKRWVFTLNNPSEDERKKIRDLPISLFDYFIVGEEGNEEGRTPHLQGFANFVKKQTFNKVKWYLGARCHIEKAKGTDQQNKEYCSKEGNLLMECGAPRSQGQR
Experimental: as §1

[8] = test system: T8, Rep nickase domain of tomato yellow leaf curl virus
T8 sequence (Rep 1-136, printed without the tag): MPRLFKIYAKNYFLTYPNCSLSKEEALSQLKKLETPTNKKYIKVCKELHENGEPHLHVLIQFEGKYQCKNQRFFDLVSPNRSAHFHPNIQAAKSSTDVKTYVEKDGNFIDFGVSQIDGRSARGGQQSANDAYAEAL
Experimental: as §1

[9] = test system: T9, Rep nickase domain of wheat dwarf virus
T9 sequence (Rep 1-137, printed without the tag): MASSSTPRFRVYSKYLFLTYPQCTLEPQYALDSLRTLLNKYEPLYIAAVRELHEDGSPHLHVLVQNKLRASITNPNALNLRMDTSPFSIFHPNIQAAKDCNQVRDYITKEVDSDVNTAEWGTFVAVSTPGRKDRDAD
Experimental: as §1

GGACGTT
uncleaved DNA left (log2) [1]: -0.00469 | uncleaved DNA left (log2) [2]: -0.00124 | uncleaved DNA left (log2) [3]: 0.774 | uncleaved DNA left (log2) [4]: 1.79 | uncleaved DNA left (log2) [5]: -0.127 | uncleaved DNA left (log2) [6]: 2.23 | uncleaved DNA left (log2) [7]: 0.151 | uncleaved DNA left (log2) [8]: -0.0701 | uncleaved DNA left (log2) [9]: 0.1

TACGACG
uncleaved DNA left (log2) [1]: -0.0549 | uncleaved DNA left (log2) [2]: 0.0115 | uncleaved DNA left (log2) [3]: -0.413 | uncleaved DNA left (log2) [4]: -0.585 | uncleaved DNA left (log2) [5]: -0.0375 | uncleaved DNA left (log2) [6]: -0.886 | uncleaved DNA left (log2) [7]: 0.0458 | uncleaved DNA left (log2) [8]: -0.00148 | uncleaved DNA left (log2) [9]: 0.0776

AATTGCG
uncleaved DNA left (log2) [1]: 0.000287 | uncleaved DNA left (log2) [2]: -0.025 | uncleaved DNA left (log2) [3]: 0.661 | uncleaved DNA left (log2) [4]: 1.5 | uncleaved DNA left (log2) [5]: 0.214 | uncleaved DNA left (log2) [6]: 2.18 | uncleaved DNA left (log2) [7]: 0.127 | uncleaved DNA left (log2) [8]: -0.25 | uncleaved DNA left (log2) [9]: 0.121

TATACAG
uncleaved DNA left (log2) [1]: 0.0739 | uncleaved DNA left (log2) [2]: 0.00652 | uncleaved DNA left (log2) [3]: -0.733 | uncleaved DNA left (log2) [4]: -1.17 | uncleaved DNA left (log2) [5]: 0.0501 | uncleaved DNA left (log2) [6]: -1.1 | uncleaved DNA left (log2) [7]: 0.205 | uncleaved DNA left (log2) [8]: 0.0171 | uncleaved DNA left (log2) [9]: 0.0727

TGCACTA
uncleaved DNA left (log2) [1]: -0.0357 | uncleaved DNA left (log2) [2]: 0.0426 | uncleaved DNA left (log2) [3]: -0.0351 | uncleaved DNA left (log2) [4]: -0.177 | uncleaved DNA left (log2) [5]: -0.022 | uncleaved DNA left (log2) [6]: 0.0631 | uncleaved DNA left (log2) [7]: -0.129 | uncleaved DNA left (log2) [8]: 0.00156 | uncleaved DNA left (log2) [9]: 0.108

TAGTATA
uncleaved DNA left (log2) [1]: -0.301 | uncleaved DNA left (log2) [2]: -0.456 | uncleaved DNA left (log2) [3]: -0.198 | uncleaved DNA left (log2) [4]: -2.32 | uncleaved DNA left (log2) [5]: -1.08 | uncleaved DNA left (log2) [6]: 0.176 | uncleaved DNA left (log2) [7]: -3.21 | uncleaved DNA left (log2) [8]: -0.00187 | uncleaved DNA left (log2) [9]: 0.0629

TCCGGAT
uncleaved DNA left (log2) [1]: 0.0186 | uncleaved DNA left (log2) [2]: -0.0124 | uncleaved DNA left (log2) [3]: 0.353 | uncleaved DNA left (log2) [4]: 1.42 | uncleaved DNA left (log2) [5]: -0.0237 | uncleaved DNA left (log2) [6]: 1.77 | uncleaved DNA left (log2) [7]: 0.0646 | uncleaved DNA left (log2) [8]: -0.158 | uncleaved DNA left (log2) [9]: -0.0379

TCCTAGA
uncleaved DNA left (log2) [1]: -0.138 | uncleaved DNA left (log2) [2]: -0.00281 | uncleaved DNA left (log2) [3]: 0.057 | uncleaved DNA left (log2) [4]: -0.0329 | uncleaved DNA left (log2) [5]: -0.0224 | uncleaved DNA left (log2) [6]: -0.754 | uncleaved DNA left (log2) [7]: -0.0434 | uncleaved DNA left (log2) [8]: 0.0558 | uncleaved DNA left (log2) [9]: -0.0607

CAACGGG
uncleaved DNA left (log2) [1]: 0.0808 | uncleaved DNA left (log2) [2]: -0.0387 | uncleaved DNA left (log2) [3]: -0.249 | uncleaved DNA left (log2) [4]: -0.217 | uncleaved DNA left (log2) [5]: 0.0378 | uncleaved DNA left (log2) [6]: -0.714 | uncleaved DNA left (log2) [7]: 0.258 | uncleaved DNA left (log2) [8]: 0.168 | uncleaved DNA left (log2) [9]: -0.0199

ATCAGTC
uncleaved DNA left (log2) [1]: -0.0231 | uncleaved DNA left (log2) [2]: 0.00392 | uncleaved DNA left (log2) [3]: -0.188 | uncleaved DNA left (log2) [4]: -0.19 | uncleaved DNA left (log2) [5]: 0.0209 | uncleaved DNA left (log2) [6]: -1.01 | uncleaved DNA left (log2) [7]: 0.127 | uncleaved DNA left (log2) [8]: 0.0293 | uncleaved DNA left (log2) [9]: -0.0455

AAGCAGA
uncleaved DNA left (log2) [1]: 0.0382 | uncleaved DNA left (log2) [2]: 0.0296 | uncleaved DNA left (log2) [3]: 0.167 | uncleaved DNA left (log2) [4]: 0.249 | uncleaved DNA left (log2) [5]: 0.11 | uncleaved DNA left (log2) [6]: -0.0101 | uncleaved DNA left (log2) [7]: 0.175 | uncleaved DNA left (log2) [8]: 0.0727 | uncleaved DNA left (log2) [9]: 0.0455

TAGCTAG
uncleaved DNA left (log2) [1]: 0.0802 | uncleaved DNA left (log2) [2]: -0.0662 | uncleaved DNA left (log2) [3]: -0.173 | uncleaved DNA left (log2) [4]: -0.0911 | uncleaved DNA left (log2) [5]: -0.0281 | uncleaved DNA left (log2) [6]: -0.706 | uncleaved DNA left (log2) [7]: 0.202 | uncleaved DNA left (log2) [8]: -0.0607 | uncleaved DNA left (log2) [9]: -0.0598

GCCTATC
uncleaved DNA left (log2) [1]: -0.243 | uncleaved DNA left (log2) [2]: -0.0802 | uncleaved DNA left (log2) [3]: -0.00206 | uncleaved DNA left (log2) [4]: 0.379 | uncleaved DNA left (log2) [5]: -0.0385 | uncleaved DNA left (log2) [6]: -0.0519 | uncleaved DNA left (log2) [7]: -0.0032 | uncleaved DNA left (log2) [8]: -0.00785 | uncleaved DNA left (log2) [9]: -0.0757

AGGCGAG
uncleaved DNA left (log2) [1]: -0.0722 | uncleaved DNA left (log2) [2]: 0.0734 | uncleaved DNA left (log2) [3]: -0.0579 | uncleaved DNA left (log2) [4]: 0.331 | uncleaved DNA left (log2) [5]: -0.0214 | uncleaved DNA left (log2) [6]: -0.371 | uncleaved DNA left (log2) [7]: 0.0271 | uncleaved DNA left (log2) [8]: 0.0782 | uncleaved DNA left (log2) [9]: 0.0298

GATCCCC
uncleaved DNA left (log2) [1]: 0.138 | uncleaved DNA left (log2) [2]: 0.221 | uncleaved DNA left (log2) [3]: 0.396 | uncleaved DNA left (log2) [4]: 0.792 | uncleaved DNA left (log2) [5]: 0.148 | uncleaved DNA left (log2) [6]: 0.946 | uncleaved DNA left (log2) [7]: -0.434 | uncleaved DNA left (log2) [8]: 0.337 | uncleaved DNA left (log2) [9]: 0.339
